Measured values as given in PubChem BioAssay AID488969 (Vanderbilt High Throughput Screening Facility, 2010).
Over roughly 110,000 compounds, “z-score” has its median near -0.1; the highest 2% begin near 2. The list shows a part of the results. The source made the active and inactive calls.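 Rule for the calls: active = z-score in the third read window above 3 or below -3; inactive = the rest.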

Target: Metabotropic glutamate receptor 8 (Rattus norvegicus) (UniProt P70579)
Assay: rat mGluR8 modulators via GIRK flux, primary screen, cell-based, thallium flux, HTS (AID 488969)
Details: HEK293 rat mGluR8, GIRK (G protein-gated inwardly rectifying potassium channel) thallium flux, FluoZin2; at 10 µM; stronger effect = higher value; submaximal glutamate (EC20) added with thallium

Sequence of UniProt P70579 (P70579 whole entry, looked up): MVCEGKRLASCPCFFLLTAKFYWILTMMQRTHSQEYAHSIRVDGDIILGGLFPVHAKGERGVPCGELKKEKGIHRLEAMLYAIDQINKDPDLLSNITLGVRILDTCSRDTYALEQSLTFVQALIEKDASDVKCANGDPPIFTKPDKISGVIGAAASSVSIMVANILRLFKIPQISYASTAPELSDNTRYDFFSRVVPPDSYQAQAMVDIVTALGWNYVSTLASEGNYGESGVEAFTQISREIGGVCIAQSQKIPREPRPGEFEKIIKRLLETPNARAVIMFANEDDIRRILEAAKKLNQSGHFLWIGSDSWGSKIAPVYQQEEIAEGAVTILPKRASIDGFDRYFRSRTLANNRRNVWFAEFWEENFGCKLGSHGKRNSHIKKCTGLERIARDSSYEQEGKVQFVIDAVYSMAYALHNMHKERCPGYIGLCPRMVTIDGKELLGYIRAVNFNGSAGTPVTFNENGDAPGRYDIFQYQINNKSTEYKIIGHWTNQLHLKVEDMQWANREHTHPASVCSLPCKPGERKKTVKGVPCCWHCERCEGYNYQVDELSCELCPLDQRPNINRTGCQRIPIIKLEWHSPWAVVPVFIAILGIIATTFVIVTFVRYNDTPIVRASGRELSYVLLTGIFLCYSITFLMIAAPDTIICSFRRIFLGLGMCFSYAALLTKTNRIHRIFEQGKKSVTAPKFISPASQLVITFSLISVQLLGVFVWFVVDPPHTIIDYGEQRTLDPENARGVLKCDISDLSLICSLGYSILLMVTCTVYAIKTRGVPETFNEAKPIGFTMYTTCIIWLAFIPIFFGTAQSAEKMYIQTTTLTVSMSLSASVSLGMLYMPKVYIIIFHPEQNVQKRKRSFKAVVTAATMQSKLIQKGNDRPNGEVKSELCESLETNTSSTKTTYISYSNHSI

Row | SMILES | z-score
1 | CCOC(=O)c1ccccc1-n1c(C)cc(C2N=C(N)Nc3nc4ccccc4n32)c1C (stereo not drawn) | 0.131
2 | CCCCc1ccc(NC(=S)Nc2ccc(Nc3ccc(OC)cc3)cc2)cc1 | -0.0123
3 | COc1cc(/C=C2/C(=O)N(c3ccccc3)N=C2C)ccc1OS(=O)(=O)c1ccccc1 | -0.322
4 | CCOc1ccc(-c2nnc(NC(=O)CCCOc3cccc(C)c3)o2)cc1 | active: 3.62
5 | CCNC(=O)CSc1nc2ccccc2c(=O)n1OC | -0.0268
6 | Cc1ccccc1Nc1nc(-c2sc(NC(=O)c3cccc(Cl)c3)nc2C)cs1 | 0.186
7 | COC(=O)Cc1ccc(NC(=S)NCCCO)cc1 | 0.00868
8 | CCN(CC)S(=O)(=O)N1CCC(C(=O)NC2CCCc3ccccc32)CC1 (stereo not drawn) | 0.111
9 | CCCCc1cc(=O)oc2c(CN(C)C)c(O)ccc12 | 0.0624
10 | CN(C)c1ccc(C(=O)c2ccc(N(C)C)c3ccccc23)cc1 | -0.192
11 | CC(C)n1c(N2CCN(CC(=O)NCc3cccs3)CC2)nc2ccccc21 | -0.0505
12 | CCCC(=O)Nc1ccc(C(=O)NCC(=O)OCC)cc1 | -0.417
13 | CC1CCC2(CC1)NC(=O)N(CC(=O)Nc1ccc(N3CCOCC3)cc1)C2=O (stereo not drawn) | 0.0063
14 | CN1CCN(NC(=O)CN2C(=O)/C(=C/c3c(Cl)cccc3Cl)SC2=S)CC1 | 1.28
15 | CCN(c1ccccc1)S(=O)(=O)c1ccc(OC)c(NC(=O)CNCC(C)O)c1 (stereo not drawn) | -0.146
16 | Cc1ccc(-n2c(=O)c3sccc3n(Cc3cc(=O)n4ccccc4n3)c2=O)cc1F | -0.784
17 | N#Cc1c(/N=C/c2ccco2)sc2c1CCC2 | 0.351
18 | OC(COc1cccc(OCC(O)CN2CCOCC2)c1)CN1CCOCC1 (stereo not drawn) | -0.4
19 | Cc1ccc(S(=O)(=O)NCc2ccc(C(=O)N(C)CCC#N)cc2)cc1 | 0.107
20 | O=[N+]([O-])c1nn(-c2ccccc2)n(O)c1=NCc1ccc2c(c1)OCO2 | -0.00428
21 | COc1ccc(N(CC(=O)Nc2cccc([N+](=O)[O-])c2C)S(C)(=O)=O)cc1OC | -0.195
22 | COc1cc(NC(=O)C2CCCN2S(=O)(=O)c2ccc3c(c2)CCC(=O)N3)cc(OC)c1 (stereo not drawn) | -0.729

Row | SMILES | z-score
23 | N#CCCN/N=C(/Cc1nc2ccccc2[nH]1)c1cccc(Cl)c1 | 0.373
24 | COc1ccc(-c2cc(C(F)(F)F)nc(SCCC(=O)NCc3ccccc3)n2)cc1 | -0.43
25 | CC[N+](CC)(CC)C/C=C/CN1CCCCC1 | -0.0395
26 | Cc1ccc(-c2cccc(OC(=O)c3ccccc3F)c2)cc1 | 0.225
27 | NNC(=O)c1nc(-c2ccccc2)n2c1CCCCC2 | -0.165
28 | Cc1ccc(C(=O)O)cc1S(=O)(=O)N1CCCC1 | 2.05
29 | Cc1ccc(Nc2nc(N)c([N+](=O)[O-])c(N3CCCC(C)C3)n2)cc1C (stereo not drawn) | 2.26
30 | CCOc1ccc(NC(=O)C/C(N)=N/O)cc1 | 0.132
31 | CC1=C(C#N)C(NC(=O)c2ccccc2Cl)(C(F)(F)F)C(=O)N1 (stereo not drawn) | -0.497
32 | COCc1nnc(NS(=O)(=O)c2ccc(NC(C)=O)cc2)s1 | -0.303
33 | COc1ccc(C2SCCN2S(=O)(=O)c2ccc(F)cc2)cc1OC (stereo not drawn) | 0.291
34 | O=C1CC(N2CCN(C3CCc4ccccc4C3)CC2)C(=O)N1c1ccccc1 (stereo not drawn) | 0.156
35 | N#C/C(=C/c1ccc(-c2ccc(S(N)(=O)=O)cc2)o1)c1nc2ccccc2s1 | -0.00234
36 | CN(C)S(=O)(=O)Nc1ccc(C(=O)O)cc1 | -0.343
37 | CCCCCNC(=O)C1CC=CCC1C(=O)O (stereo not drawn) | -0.161
38 | Cc1cccc(-c2nc(C#N)c(N3CCCCCC3)o2)c1 | 0.223
39 | C/C=C/Cn1c(SCc2ccc(C)cc2)nc2c1c(=O)[nH]c(=O)n2C | -0.0511
40 | COc1ccccc1OCc1ccc(C(=O)NC(C)(C)C)o1 | -0.289
41 | CCn1c(-c2ccc(C)cc2)nn(CC(=O)NCCc2ccccc2)c1=S | -0.272
42 | Nc1ccc(C(=O)OCC(=O)NC2CCCc3ccccc32)cc1[N+](=O)[O-] (stereo not drawn) | -0.347
43 | COc1ccc(-n2nnnc2-c2ccccc2)cc1 | 0.0765
44 | COc1ccc(-c2nc(CSCC(=O)NCC3CCCO3)c(C)o2)cc1OC (stereo not drawn) | -0.231

Row | SMILES | z-score
45 | Brc1cccc(OCCOCCn2ccnc2)c1 | -0.0613
46 | COc1ccc(C(CC(=O)O)NC(=O)c2ccco2)cc1 (stereo not drawn) | -0.0992
47 | CCOC(=O)/C(C#N)=C/c1cn(CCC(=O)O)nc1-c1ccccc1 | -0.252
48 | COC(=O)c1ccc(COc2ccc3c4c(c(=O)oc3c2)CCC4)o1 | 0.0799
49 | O=C1CN(C(=O)COC(=O)CNC(=O)c2ccccc2)c2ccccc2N1 | -0.585
50 | CCC(Cc1ccccc1)NC(=O)C1CCN(S(=O)(=O)c2c(C)noc2C)CC1 (stereo not drawn) | -0.318
51 | COc1ccc(/C=N/N=C2/NC(=O)C(CC(=O)O)S2)cc1OCc1ccccc1Cl (stereo not drawn) | -0.138
52 | Cc1cc(C)nc(NCC(O)CNc2ccccc2C)n1 (stereo not drawn) | 0.0393
53 | CCOC(=O)C(C(=O)N(C)C)c1ncc(C(F)(F)F)cc1Cl (stereo not drawn) | 0.00131
54 | Cc1c(Br)cc(C(=O)N2CCCCCC2)c(C)c1C | -0.28
55 | CCNc1ccc(Br)cc(C(=O)/C=C/c2ccccc2Cl)c1=O | 0.225
56 | COc1ccccc1CC(=O)Nc1ccccc1C(=O)O | -0.257
57 | FC(F)(F)c1nnc2ccc(N3CCN(c4ccccc4)CC3)nn12 | -0.0115
58 | Cc1noc(C(=O)NCc2ccc(F)cc2)c1Cl | -0.2
59 | COc1ccc(C2CC(c3cccs3)=NN2c2ccc(C=O)cc2)cc1 (stereo not drawn) | 0.0183
60 | CCOC(=O)N1CCN(C(=O)CNS(=O)(=O)c2cccs2)CC1 | 0.68
61 | CC(C)C[C@H](NS(=O)(=O)c1ccc(Br)cc1)C(=O)O | 0.131
62 | CCSc1nnc(NC(=O)CSc2nc3c(c(=O)n2CC)SC(C)C3)s1 (stereo not drawn) | -0.0369
63 | Cc1cc2nc(-c3ccc(SCC(=O)N4CCN(C(=O)c5ccco5)CC4)nc3)[nH]c2cc1C | 0.00238
64 | CCN(CC)S(=O)(=O)c1ccc(-c2nnc(SCC(=O)N3CCOCC3)o2)cc1 | -0.522
65 | CCC(=O)N=c1sc2c(OC)ccc(OC)c2n1C | -0.467
66 | O=C(O)CSc1c[nH]c2ccccc12 | -0.4

Row | SMILES | z-score
67 | CCCCC(=O)Nc1cccc(NC(=O)c2ccc3c(c2)OCO3)c1 | -0.0155
68 | CC(C)C(c1nnnn1Cc1ccc(F)cc1)N1CCN(Cc2ccc3c(c2)OCO3)CC1 (stereo not drawn) | 0.13
69 | COC(=O)C1=C(C)OC(N)=C(C#N)C1c1ccco1 (stereo not drawn) | -0.186
70 | O=C(COc1ccccc1N1C(=O)c2ccccc2C1=O)c1ccc(Cl)cc1 | -0.197
71 | COc1ccc(NC(=O)/C(Cl)=C(/Cl)S(=O)(=O)Cc2ccccc2)cn1 | -0.481
72 | CCn1nc(NC(=O)c2cccnc2)c2cc3ccccc3nc21 | -0.87
73 | CC1CCc2c(sc3ncnc(N4CCN(S(=O)(=O)c5cccc6nonc56)CC4)c23)C1 (stereo not drawn) | 0.835
74 | O=C(Nc1cc(C(F)(F)F)ccc1N1CCCC1)c1cccnc1 | 0.0707
75 | CC(NC(=O)/C(=C\c1cccc([N+](=O)[O-])c1)NC(=O)c1ccco1)C(=O)O (stereo not drawn) | 0.148
76 | COc1cc(C)ccc1OCCOCCOc1ccc([N+](=O)[O-])cc1 | -0.271
77 | Fc1cc2nc(-c3ccncc3)[nH]c2cc1F | 0.99
78 | Cc1ccc(N2C(=O)NC(NC(=O)C(C)(C)C)(C(F)(F)F)C2=O)cc1 (stereo not drawn) | -0.11
79 | C/C(=N\Nc1cc(-c2ccccc2)nc(-c2ccccc2)n1)c1ccc(O)c(C)c1 | -0.201
80 | Cn1cnnc1SCC(=O)Nc1sc2c(c1C#N)CCCCC2 | 0.0796
81 | Cc1ccc2c(c1)[nH]c1c(=O)n(CCCN3CCOCC3)cnc12 | 0.468
82 | c1nnn(C23CC4CC(CC(C4)C2)C3)n1 | 1.14
83 | O=C(NCc1ccccc1)c1ccc(OCC2CCCO2)cc1 (stereo not drawn) | 0.23
84 | CCOc1ccccc1N(C)C(=O)C1CCN(S(=O)(=O)c2cccc3nonc23)CC1 | 0.778
85 | C/C(Cn1nc([N+](=O)[O-])cc1C)=N\NC(=O)COc1c(Cl)cc(Cl)cc1Cl | 0.0152
86 | O=C(CCN1C(=O)C2C3C=CC(C3)C2C1=O)NCCc1ccccc1 (stereo not drawn) | 0.331
87 | O=C(O)c1cnn(-c2ccccc2)c1-c1ccccc1 | -0.548
88 | COCC(=O)NC1CC2CCCC(C1)N2Cc1ccccc1 (stereo not drawn) | -1.46

Row | SMILES | z-score
89 | CCN(CC)c1ccc(NC(=O)COC(=O)C23CCC(=O)N2c2ccccc2S3)cc1 (stereo not drawn) | -0.33
90 | COc1ccc(C(O)C(CC(=O)NCCCOC(C)C)C(=O)NCCCOC(C)C)cc1OC (stereo not drawn) | -0.266
91 | Cc1nn(C(CC(=O)O)C(=O)O)c(C)c1Br (stereo not drawn) | -0.194
92 | CN(Cc1ccccc1)C(=O)COC(=O)c1ccc(Cl)c(N)c1 | -0.11
93 | Cc1ccc(NC(=O)CN2C(=O)NC(C)(c3ccc(Cl)cc3)C2=O)cc1S(=O)(=O)N1CCOCC1 (stereo not drawn) | -0.0719
94 | CCn1c2ccccc2c2cc(NC(=O)CSc3nnc(-c4cccc(F)c4)o3)ccc21 | 0.298
95 | COC(=O)c1c(NC(=O)CN2CCN(c3ccccc3Cl)CC2)sc(C)c1C | -0.0842
96 | NC(=O)CSc1nnc(-c2ccc(S(=O)(=O)N3CCOCC3)cc2)n1Cc1ccccc1 | -0.888
97 | Fc1ccccc1N1CCN(C(c2cccs2)c2nnnn2CCc2ccccc2)CC1 (stereo not drawn) | 0.131
98 | CN(C)c1ccc(-c2n(C)c3ccccc3[n+]2C)cc1 | 0.0484
99 | Cc1ccc(NC(=O)CSc2nnc(CNC(=O)C34CC5CC(CC(C5)C3)C4)n2-c2ccc(F)cc2)cc1 | -0.0179
100 | C=C(C)Cn1c(CCCNC(=O)C(C)(C)C)nc2ccccc21 | 0.285
101 | O=C(Nc1ccc(OC(F)(F)F)cc1)c1n[nH]c(Cn2cncn2)n1 | -0.0524
102 | CC(C)(C)NC(=O)NC(=O)COC(=O)c1cc(=O)[nH]c2ccccc12 | -0.373
103 | Cc1nnc(-n2ncc(C#N)c2N)c2nn(-c3ccccc3F)c(C)c12 | 0.226
104 | CCC(=O)c1ccc(OCC(O)CN2C(=O)NC(C)(C)C2=O)cc1 (stereo not drawn) | 0.166
105 | Cc1cccc(OCC(=O)Nc2ccccc2C(=O)N2CCOCC2)c1 | -0.0499
106 | O=[N+]([O-])c1ccc(Sc2n[nH]c(-c3ccc(Cl)cc3Cl)n2)nc1 | 0.621
107 | CCOC(=O)c1cnc2c(C)c(C)ccc2c1Nc1ccc(S(=O)(=O)Nc2ncccn2)cc1 | -0.177
108 | CC(=O)N1CCc2cc(S(=O)(=O)CCC(=O)Nc3cccc(F)c3)ccc21 | 0.0808
